Laboratory results from PubChem BioAssay AID686978 (National Center for Advancing Translational Sciences (NCATS), 2013).
The whole screen tested about 420,000 compounds, of which about 64,000 (15%) were called active. Inconclusive results, whose numbers are uncertain, are shown with a selection of clear calls. Calls come from the whole dose curve; as a rule, active = well fitted inhibition curve with a large enough effect; inconclusive = small, poorly fitted or top-dose-only effect; inactive = flat fitted curve, though single readings scatter. Potencies of inconclusive entries are left out as doubtful fits.

Test: qHTS for Inhibitors of human tyrosyl-DNA phosphodiesterase 1 (TDP1): qHTS in cells in absence of CPT; note: nearly all actives have a fitted effect of over 55% in size
Conditions: DT40 Tdp1-/- hTDP1 cells, no CPT, ATP luminescence, 48 h; series mostly up to 46.2 µM
Method in brief: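 Stably hTDP1-transfected Tdp1-null chicken DT40 cells were treated with library compounds minus camptothecin and grown for at least 48 hr at 37 °C, after which cellular ATP was quantified by luminescence.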
Potency is the fitted concentration of half-maximal effect; tags give direction and shape of the fitted curve.

**Q.** With `Cc1ccc(NC(=O)CN2C(=O)C3C4C=CC(C4)C3C2=O)cc1` (stereo not given) as the compound, how does the Potency read?
**A.** inactive

**Q.** Which Potency does the source give for `CCOc1ccc(CCNC(=O)C2COc3ccccc3C2)cc1OCC` (stereo not given) here?
**A.** inconclusive [inhibitor, single point]

**Q.** With `Cc1ccc(C2/C=C\CC(NC(=O)OCC3c4ccccc4-c4ccccc43)CC(=O)N2Cc2ccccc2)cc1` (stereo not given) as the compound, how does the Potency read?
**A.** active: 16.4 µM

**Q.** For `CCCC(=Nc1ccc(N)cc1)C1=C(O)C(C(=O)OC)C(C)(C)CC1=O` (stereo not given), which Potency is on record?
**A.** inconclusive [inhibitor, single point]

**Q.** Which Potency does the source give for `O=C(Nc1cccc(F)c1)N1CCCC(CNS(=O)(=O)Cc2ccccc2)C1` (stereo not given) here?
**A.** inactive

**Q.** Which Potency does the source give for `CCc1nc2c(OCC(=O)C(C)(C)C)cccn2c1N(C)C(=O)C(C)C` here?
**A.** inactive

**Q.** Which Potency does the source give for `Cn1c(SCc2nc(-c3ccc(Cl)cc3)no2)nnc1-c1cccs1` here?
**A.** active: 16.4 µM

**Q.** With `O=S(=O)(c1cc(Cl)ccc1Br)N1CCCCC1` as the compound, how does the Potency read?
**A.** inconclusive [inhibitor, partial curve]

**Q.** With `CC(C)CC1NC(=O)c2cccnc2-n2c1nc1cc(F)c(F)cc1c2=O` (stereo not given) as the compound, how does the Potency read?
**A.** inactive

**Q.** For `COc1cc(-c2nnc(SCC(=O)Nc3ccc(F)c(Cl)c3)o2)cc(OC)c1OC`, which Potency is on record?
**A.** inactive

**Q.** For `Cc1cc(C)c(C)c(Cn2c(CO)nc3ccccc32)c1C`, which Potency is on record?
**A.** inconclusive [inhibitor, single point]

**Q.** With `CCOC(=O)/C(C#N)=C/c1c(Oc2cccc(C)c2)nc2c(C)cccn2c1=O` as the compound, how does the Potency read?
**A.** inactive

**Q.** With `Cc1nn(C)c(C)c1S(=O)(=O)N1CCC(C(=O)NCCC2=CCCCC2)CC1` as the compound, how does the Potency read?
**A.** inconclusive [inhibitor, single point]

**Q.** With `CCCC(NS(=O)(=O)c1ccc(-c2ccc(=O)[nH]n2)s1)c1cccs1` (stereo not given) as the compound, how does the Potency read?
**A.** inconclusive [inhibitor, single point]

**Q.** With `Cc1cc(C(=O)CSc2nnc(-c3ccc(Cl)cc3)n2CC2CCCO2)c(C)n1C` (stereo not given) as the compound, how does the Potency read?
**A.** active: 23.1 µM

**Q.** With `O=C(COC(=O)c1ccc2ncsc2c1)NCc1ccc(F)cc1` as the compound, how does the Potency read?
**A.** inconclusive [inhibitor, partial curve, poor fit]

**Q.** Which Potency does the source give for `COc1ccc(CN2CCC(n3nccc3NC(=O)CCc3ccccc3)CC2)c(C)c1C` here?
**A.** inconclusive [inhibitor, single point]

**Q.** Which Potency does the source give for `CC(C(=O)N1CCc2ccccc21)N1CCN(Cc2ccc(Cl)cc2)CC1` (stereo not given) here?
**A.** inactive

**Q.** For `Cc1ccc2nc(-c3ccc(O)cc3)c(Nc3ccc4c(c3)OCO4)n2c1`, which Potency is on record?
**A.** inconclusive [inhibitor, single point]

**Q.** For `Cc1cc(C(=O)Nc2nnc(C3CCCCC3)s2)cs1`, which Potency is on record?
**A.** inconclusive [inhibitor, single point]
